# Results taken from PubChem BioAssay AID1030 (National Center for Advancing Translational Sciences (NCATS), 2008).
# “And” between values parts separate entries of the source, which are not always exact repeats. Identical values can stand only once. Hit rate of the full screen: of about 220,000 compounds, about 16,000 (7.3%) were called active. The shares of active, inactive and inconclusive entries below differ from those in the screen. Calls come from the whole dose curve; as a rule, active = well fitted inhibition curve with a large enough effect (not every such curve was filed as active); inconclusive = small, poorly fitted or top-dose-only effect, or another doubt; inactive = no such curve, though single readings can be large or run the other way. No potency is given beside an inconclusive call; the fits are too rough. A structure can be active in one record and inactive in another.
# Molecular target: Aldehyde dehydrogenase 1A1 (Homo sapiens) (UniProt P00352)
# Chain of UniProt P00352 (P00352 whole entry, looked up): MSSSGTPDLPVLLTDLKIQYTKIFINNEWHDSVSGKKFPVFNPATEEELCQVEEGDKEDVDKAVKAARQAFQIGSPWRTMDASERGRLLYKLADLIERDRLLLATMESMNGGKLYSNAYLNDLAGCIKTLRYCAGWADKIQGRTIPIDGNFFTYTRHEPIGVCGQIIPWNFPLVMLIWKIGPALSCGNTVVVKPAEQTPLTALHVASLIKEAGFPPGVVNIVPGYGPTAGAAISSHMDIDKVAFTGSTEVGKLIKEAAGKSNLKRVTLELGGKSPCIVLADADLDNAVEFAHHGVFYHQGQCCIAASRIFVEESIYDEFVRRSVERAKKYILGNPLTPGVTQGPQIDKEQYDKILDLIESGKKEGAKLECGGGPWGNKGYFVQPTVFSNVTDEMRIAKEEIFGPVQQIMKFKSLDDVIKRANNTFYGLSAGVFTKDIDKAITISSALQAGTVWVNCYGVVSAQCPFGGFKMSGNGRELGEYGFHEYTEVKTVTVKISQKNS
# Test: qHTS Assay for Inhibitors of Aldehyde Dehydrogenase 1 (ALDH1A1);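 for activity, negative = inhibition: plate controls were no enzyme wells and a reference inhibitor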
# Conditions: Purified ALDH1A1, NADH fluorescence, propionaldehyde substrate; series mostly up to 75.3 µM; activity, negative = inhibition: at the top concentration
# Potency is the fitted concentration of half-maximal effect; tags give direction and shape of the fitted curve.
Compound,Potency,"activity, negative = inhibition"
N#Cc1c(NC(=O)CSc2n[nH]c(N)n2)oc(-c2ccccc2)c1-c1ccccc1,"inconclusive [inhibitor, single point]",–
CC1CCCN(C(=O)CSc2nnc(-c3ccc(S(=O)(=O)N4CCOCC4)cc3)n2C)C1 (centres undefined),"inconclusive [inhibitor, partial curve]",–
CCCOCC(C)O (centres undefined),–,inactive: -4.3%
CN(C)S(=O)(=O)Nc1ccc2c(c1)Cc1ccccc1-2,–,inactive: 8.46%
O=C(CSc1nnc(-c2c[nH]c3ccccc23)o1)N1CCCCC1,"inconclusive [inhibitor, single point]",–
CN1CCN(C(=O)c2cnn(-c3ccccc3)c2NC(=O)c2ccccc2F)CC1,"inconclusive [inhibitor, single point]",–
COc1ccc(OCc2cn3c(C)cc(C)nc3n2)cc1,–,inactive: 1.75%
CCC(CO)NC(=O)c1ccc(-c2nn(C)c(=O)c3ccccc23)cc1 (centres undefined),–,inactive: 11.8%
CC(OC(=O)c1ccccc1O)C(=O)Nc1ccc(Cl)cn1 (centres undefined),"inconclusive [inhibitor, single point]",–
CC(C)c1ccc(NC(=O)c2ccc(NS(C)(=O)=O)cc2)cc1,–,inactive: -5.17%
Cn1cnc(C(F)(F)F)c1-c1ccc([N+](=O)[O-])cc1,–,inactive: 18.6%
CCCCn1c(N)c(N(CC(C)C)C(=O)CCCSc2nncs2)c(=O)[nH]c1=O,"inconclusive [inhibitor, partial curve, poor fit]",–
CN(C)CCCCSC(=N)N,active: 25.1 µM,–
O=c1c(-c2ccccc2)nc2cnc(N3CCNCC3)nc2n1C1CC1,"inconclusive [inhibitor, partial curve]",–
N#C/C(C(=O)N1CCOCC1)=C1/SC(Cc2ccccc2Cl)C(=O)N1c1ccccc1 (centres undefined),–,inactive: -4.97%
COc1cc(C=O)ccc1O,active: 14.1 µM and active: 25.1 µM,–
O=C(c1cnccn1)N1CCN(S(=O)(=O)c2ccc3ccccc3c2)CC1,–,inactive: -5.2%
O=C(NC1=C(Nc2ccc(Cl)cc2)C(=O)c2ccccc2C1=O)c1ccccc1,–,inactive: -3.66%
COc1cccc(C2(O)CCN(C(=O)C3CC3)CC2)c1,active: 22.4 µM,–
COc1c2ccoc2c(OC[C@@H](O)C(C)(C)OC)c2oc(=O)ccc12,"inconclusive [inhibitor, partial curve]",–
NC(=O)CSc1nc2c(c(=O)n1-c1ccccc1)C1(CCCCC1)Cc1ccccc1-2,"inconclusive [inhibitor, single point]",–
COc1ccc(Cn2nnnc2C(c2ccncc2)N2CCOCC2)cc1 (centres undefined),active: 28.2 µM,–
O=C(NC1CCCCCC1)c1cccnc1Sc1ccccc1,"inconclusive [inhibitor, single point]",–
CCOc1ccc(S(=O)(=O)N2CCC(C(N)=O)CC2)c2ccccc12,"inconclusive [inhibitor, partial curve]",–
Oc1ccc(-c2nncn2-c2ccccc2)cc1,–,inactive: -7.56%

Compound,Potency,"activity, negative = inhibition"
Cc1c(NC(=O)C(C)Sc2nc3ccccc3c(=O)n2CCO)c(=O)n(-c2ccccc2)n1C (centres undefined),–,inactive: 14.8%
CCOC(=O)C1=C(CSc2nc(CC)c(C)cc2C#N)OC(N)=C(C#N)C1c1ccc(OC)cc1 (centres undefined),"inconclusive [inhibitor, single point]",–
CC(C)C(OC(=O)c1cc2c(s1)CCCCC2)C(=O)NC(N)=O (centres undefined),"inconclusive [inhibitor, partial curve]",–
O=[N+]([O-])c1cccc(NC(=S)N2CCOCC2)c1,–,inactive: 9.44%
Cc1ccc2c(c1)cc(CN(Cc1cccs1)C(=O)c1ccco1)c1nnnn12,"inconclusive [inhibitor, single point]",–
CCOc1ccc(NC2=NCC(=O)N2CCc2ccccc2)cc1,active: 25.1 µM,–
CC(=O)Oc1ccc2c(c1)C(=O)c1ccccc1CO2,"inconclusive [inhibitor, single point]",–
CCOC(=O)c1cnn(-c2ccccc2)c1-n1cccc1C(=O)C(=O)Nc1ccccc1C(F)(F)F,–,inactive: 12.2%
CC(CCN(C)C)OC(=O)c1ccc(C(C)c2ccccc2)o1 (centres undefined),active: 39.8 µM,–
Clc1ccccc1Cn1nnc(-c2cccs2)n1,"inconclusive [inhibitor, single point]",–
CC(C)CCNC(=O)C1CCN(c2nc3ccccc3o2)CC1,–,inactive: 6.54%
O=C(c1ccc(F)cc1)[C@@H]1[C@@H](C(=O)c2ccccc2)[C@@]2(C(=O)Nc3ccccc32)[C@H]2c3ccccc3C=CN12,active: 20 µM,–
Clc1ccc(-c2noc(CN3CCOCC3)n2)cc1,"inconclusive [inhibitor, single point]",–
COC(=O)c1ccc(NC(=O)c2ccccc2-c2ccccc2C(=O)O)cc1,–,inactive: 7.22%
Cn1c(-c2ccc(F)cc2)cnc1SCC(=O)N1CCCCC1,"inconclusive [inhibitor, single point]",–
COc1ccc(NC(=O)CC2C(=O)N(c3cccc(OC)c3)C(=O)N2C2CCCCC2)cc1 (centres undefined),–,inactive: 2.21%
COc1ccc(C(=O)Nc2ccc3c(c2)OCO3)cc1OC,–,inactive: 5.14%
COc1ccc(-c2nc(-c3cccc(C)c3)[nH]c(=O)c2C#N)cc1,"inconclusive [inhibitor, single point]",–
Cc1ccc(NC(=S)N(CCN(C)C)Cc2cccs2)c(C)c1,–,inactive: -6.17%
Cc1ccc(-n2c(CCC(=O)O)ccc2-c2cccs2)cc1,"inconclusive [inhibitor, partial curve]",–
COc1ccc(CC(=O)NCc2n[nH]c(=S)n2-c2ccccc2)cc1,–,inactive: -6.92%
O=C1C2C(C(=O)N1/N=C/c1cccc([N+](=O)[O-])c1)C1C=CC2C12CC2 (centres undefined),active: 15.8 µM,–
CNC(=O)[C@]1(C)C[C@H]1[C@H](NC(=O)[C@]1(C)C[C@H]1[C@H](NC(=O)[C@]1(C)C[C@H]1[C@H](NC(=O)[C@]1(C)C[C@H]1[C@H](NC(=O)OCc1ccccc1)c1ccccc1)c1ccccc1)c1ccccc1)c1ccccc1,–,inactive: -0.549%
O=C(CN1CCN(c2ncccn2)CC1)NCc1ccccc1,"inconclusive [inhibitor, single point]",–
